# Data as given in the supplement of paper PMC8728848.
# The other results are listed elsewhere or left out.
# B1: AAA (Anguilla anguilla), Q7SIC1 (protein)
# chain: VIPEGYTQENVAVRGKATQSAQLRGEHAANSEASNAIDGNRDSNFYHGSCTHSSGQANPWWRVDLLQVYTITSVTITNRGDCCGERISGAEINIGQHLASNGVNNPECSVIGSMATGETKTFHCPAPMIGRYVVTYLPTSESLHLCEVEVNVDKPAAA
# Experiments:
# Assay in all cases: glycan array binding signal (z-score within array); higher = stronger binding
# Conditions in all cases: glycan notation: IUPAC condensed, linker removed
# [1] = molecular target: Gal(b1-4)GlcNAc(b1-6)GalNAc
# Procedure, shortened: (§1)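 Glycan array binding is given as a within-array Z-score, which can be read as non-binding when negative. The arrays, 3228 of them, came from the Consortium for Functional Glycomics database and were retained only where the protein sequence was available. Z-scores were averaged across arrays of the same protein sequence at different concentrations or buffers and across linkers.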
# [2] = molecular target: Gal(b1-4)GlcNAc(b1-6)[Gal(b1-3)]GalNAc
# Procedure, shortened: as §1
# [3] = molecular target: Gal(b1-4)GlcNAc(b1-6)[Gal(b1-3)]GlcNAc
# Procedure, shortened: as §1
# [4] = molecular target: Gal(b1-4)GlcNAc(b1-6)[Gal(b1-4)GlcNAc(b1-3)]GalNAc
# Procedure, shortened: as §1
# Gal(b1-4)GlcNAc6P = molecular target: Gal(b1-4)GlcNAc6P
# Procedure, shortened: as §1
# Gal(b1-6)Gal = molecular target: Gal(b1-6)Gal
# Procedure, shortened: as §1
# Gal3S(b1-3)GalNAc = molecular target: Gal3S(b1-3)GalNAc
# Procedure, shortened: as §1
# Gal3S(b1-3)GlcNAc = molecular target: Gal3S(b1-3)GlcNAc
# Procedure, shortened: as §1
# [5] = molecular target: Gal3S(b1-3)[Fuc(a1-4)]GlcNAc
# Procedure, shortened: as §1
# Gal3S(b1-4)Glc = molecular target: Gal3S(b1-4)Glc
# Procedure, shortened: as §1
# Gal3S(b1-4)Glc6S = molecular target: Gal3S(b1-4)Glc6S
# Procedure, shortened: as §1
# Gal3S(b1-4)GlcNAc = molecular target: Gal3S(b1-4)GlcNAc
# Procedure, shortened: as §1
# Gal3S(b1-4)GlcNAc6S = molecular target: Gal3S(b1-4)GlcNAc6S
# Procedure, shortened: as §1
# [6] = molecular target: Gal3S(b1-4)[Fuc(a1-3)]Glc6S
# Procedure, shortened: as §1
# [7] = molecular target: Gal3S(b1-4)[Fuc(a1-3)]GlcNAc
# Procedure, shortened: as §1
# [8] = molecular target: Gal3S(b1-4)[Fuc(a1-3)]GlcNAc6S
# Procedure, shortened: as §1
# Gal3S4S(b1-4)GlcNAc = molecular target: Gal3S4S(b1-4)GlcNAc
# Procedure, shortened: as §1
# Gal3S6S(b1-4)GlcNAc = molecular target: Gal3S6S(b1-4)GlcNAc
# Procedure, shortened: as §1
# Gal3S6S(b1-4)GlcNAc6S = molecular target: Gal3S6S(b1-4)GlcNAc6S
# Procedure, shortened: as §1
# Gal4S(b1-4)GlcNAc = molecular target: Gal4S(b1-4)GlcNAc
# Procedure, shortened: as §1
# Gal4S6S(b1-4)GlcNAc = molecular target: Gal4S6S(b1-4)GlcNAc
# Procedure, shortened: as §1
# Gal6P(b1-4)GlcNAc = molecular target: Gal6P(b1-4)GlcNAc
# Procedure, shortened: as §1
# Gal6S(b1-3)GlcNAc = molecular target: Gal6S(b1-3)GlcNAc
# Procedure, shortened: as §1
# Gal6S(b1-3)GlcNAc6S = molecular target: Gal6S(b1-3)GlcNAc6S
# Procedure, shortened: as §1
# Gal6S(b1-4)Glc = molecular target: Gal6S(b1-4)Glc
# Procedure, shortened: as §1
# Gal6S(b1-4)Glc6S = molecular target: Gal6S(b1-4)Glc6S
# Procedure, shortened: as §1
# Gal6S(b1-4)GlcNAc = molecular target: Gal6S(b1-4)GlcNAc
# Procedure, shortened: as §1
# Gal6S(b1-4)GlcNAc6S = molecular target: Gal6S(b1-4)GlcNAc6S
# Procedure, shortened: as §1
# GalNAc(a1-3)Gal = molecular target: GalNAc(a1-3)Gal
# Procedure, shortened: as §1
# GalNAc(a1-3)GalNAc = molecular target: GalNAc(a1-3)GalNAc
# Procedure, shortened: as §1
# [9] = molecular target: GalNAc(a1-3)GalNAc(a1-3)Gal(a1-4)Gal(b1-4)GlcNAc
# Procedure, shortened: as §1
# [10] = molecular target: GalNAc(a1-3)GalNAc(b1-3)Gal(a1-4)Gal(b1-4)Glc
# Procedure, shortened: as §1
# GalNAc(b1-3)Gal = molecular target: GalNAc(b1-3)Gal
# Procedure, shortened: as §1
# [11] = molecular target: GalNAc(b1-3)Gal(a1-4)Gal(b1-4)GlcNAc
# Procedure, shortened: as §1
# [12] = molecular target: GalNAc(b1-3)Gal(a1-4)Gal(b1-4)GlcNAc(b1-3)Gal(b1-4)Glc
# Procedure, shortened: as §1
# [13] = molecular target: GalNAc(b1-3)Gal(a1-6)Gal(b1-4)Glc
# Procedure, shortened: as §1
# GalNAc(b1-3)GalNAc = molecular target: GalNAc(b1-3)GalNAc
# Procedure, shortened: as §1
# GalNAc(b1-3)GlcNAc = molecular target: GalNAc(b1-3)GlcNAc
# Procedure, shortened: as §1
# GalNAc(b1-4)Gal(b1-4)Glc = molecular target: GalNAc(b1-4)Gal(b1-4)Glc
# Procedure, shortened: as §1
# GalNAc(b1-4)GlcNAc = molecular target: GalNAc(b1-4)GlcNAc
# Procedure, shortened: as §1
# [14] = molecular target: GalNAc(b1-4)GlcNAc(b1-2)Man
# Procedure, shortened: as §1
# [15] = molecular target: GalNAc(b1-4)GlcNAc(b1-2)Man(a1-3)[GalNAc(b1-4)GlcNAc(b1-2)Man(a1-6)]Man(b1-4)GlcNAc(b1-4)GlcNAc
# Procedure, shortened: as §1
# [16] = molecular target: GalNAc(b1-4)GlcNAc(b1-3)GalNAc(b1-4)GlcNAc
# Procedure, shortened: as §1
# GalNAc(b1-4)GlcNAc6S = molecular target: GalNAc(b1-4)GlcNAc6S
# Procedure, shortened: as §1
# GalNAc(b1-6)GalNAc = molecular target: GalNAc(b1-6)GalNAc
# Procedure, shortened: as §1
binder,measurement,setting,value
B1,glycan array binding signal (z-score),[1],0.062
same,glycan array binding signal (z-score),[2],0.115
same,glycan array binding signal (z-score),[3],-0.248
same,glycan array binding signal (z-score),[4],-0.023
same,glycan array binding signal (z-score),Gal(b1-4)GlcNAc6P,-0.219
same,glycan array binding signal (z-score),Gal(b1-6)Gal,-0.157
same,glycan array binding signal (z-score),Gal3S(b1-3)GalNAc,-0.191
same,glycan array binding signal (z-score),Gal3S(b1-3)GlcNAc,-0.151
same,glycan array binding signal (z-score),[5],-0.129
same,glycan array binding signal (z-score),Gal3S(b1-4)Glc,-0.117
same,glycan array binding signal (z-score),Gal3S(b1-4)Glc6S,-0.043
same,glycan array binding signal (z-score),Gal3S(b1-4)GlcNAc,-0.389
same,glycan array binding signal (z-score),Gal3S(b1-4)GlcNAc6S,1.01
same,glycan array binding signal (z-score),[6],0.158
same,glycan array binding signal (z-score),[7],-0.194
same,glycan array binding signal (z-score),[8],-0.154
same,glycan array binding signal (z-score),Gal3S4S(b1-4)GlcNAc,-0.191
same,glycan array binding signal (z-score),Gal3S6S(b1-4)GlcNAc,-0.09
same,glycan array binding signal (z-score),Gal3S6S(b1-4)GlcNAc6S,-0.044
same,glycan array binding signal (z-score),Gal4S(b1-4)GlcNAc,-0.077
same,glycan array binding signal (z-score),Gal4S6S(b1-4)GlcNAc,-0.151
same,glycan array binding signal (z-score),Gal6P(b1-4)GlcNAc,-0.388
same,glycan array binding signal (z-score),Gal6S(b1-3)GlcNAc,-0.275
same,glycan array binding signal (z-score),Gal6S(b1-3)GlcNAc6S,-0.273
same,glycan array binding signal (z-score),Gal6S(b1-4)Glc,-0.307
same,glycan array binding signal (z-score),Gal6S(b1-4)Glc6S,0.034
same,glycan array binding signal (z-score),Gal6S(b1-4)GlcNAc,-0.291
same,glycan array binding signal (z-score),Gal6S(b1-4)GlcNAc6S,-0.292
same,glycan array binding signal (z-score),GalNAc(a1-3)Gal,-0.207
same,glycan array binding signal (z-score),GalNAc(a1-3)GalNAc,-0.17
same,glycan array binding signal (z-score),[9],-0.227
same,glycan array binding signal (z-score),[10],-0.206
same,glycan array binding signal (z-score),GalNAc(b1-3)Gal,-0.159
same,glycan array binding signal (z-score),[11],-0.214
same,glycan array binding signal (z-score),[12],-0.262
same,glycan array binding signal (z-score),[13],-0.072
same,glycan array binding signal (z-score),GalNAc(b1-3)GalNAc,-0.16
same,glycan array binding signal (z-score),GalNAc(b1-3)GlcNAc,-0.333
same,glycan array binding signal (z-score),GalNAc(b1-4)Gal(b1-4)Glc,-0.076
same,glycan array binding signal (z-score),GalNAc(b1-4)GlcNAc,1.89
same,glycan array binding signal (z-score),[14],1.78
same,glycan array binding signal (z-score),[15],0.974
same,glycan array binding signal (z-score),[16],3.34
same,glycan array binding signal (z-score),GalNAc(b1-4)GlcNAc6S,0.254
same,glycan array binding signal (z-score),GalNAc(b1-6)GalNAc,-0.222
